Hit rate of the full screen: of about 310,000 compounds, about 14,000 (4.5%) showed an effect of 50% or more. The effect is printed as a negative number. Some of the results follow.
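Also: peak tail current of the secondary pulse compared with the same well before compound.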

human ether-à-go-go-related gene (hERG) potassium channel, sequence (Q12809 whole entry, looked up): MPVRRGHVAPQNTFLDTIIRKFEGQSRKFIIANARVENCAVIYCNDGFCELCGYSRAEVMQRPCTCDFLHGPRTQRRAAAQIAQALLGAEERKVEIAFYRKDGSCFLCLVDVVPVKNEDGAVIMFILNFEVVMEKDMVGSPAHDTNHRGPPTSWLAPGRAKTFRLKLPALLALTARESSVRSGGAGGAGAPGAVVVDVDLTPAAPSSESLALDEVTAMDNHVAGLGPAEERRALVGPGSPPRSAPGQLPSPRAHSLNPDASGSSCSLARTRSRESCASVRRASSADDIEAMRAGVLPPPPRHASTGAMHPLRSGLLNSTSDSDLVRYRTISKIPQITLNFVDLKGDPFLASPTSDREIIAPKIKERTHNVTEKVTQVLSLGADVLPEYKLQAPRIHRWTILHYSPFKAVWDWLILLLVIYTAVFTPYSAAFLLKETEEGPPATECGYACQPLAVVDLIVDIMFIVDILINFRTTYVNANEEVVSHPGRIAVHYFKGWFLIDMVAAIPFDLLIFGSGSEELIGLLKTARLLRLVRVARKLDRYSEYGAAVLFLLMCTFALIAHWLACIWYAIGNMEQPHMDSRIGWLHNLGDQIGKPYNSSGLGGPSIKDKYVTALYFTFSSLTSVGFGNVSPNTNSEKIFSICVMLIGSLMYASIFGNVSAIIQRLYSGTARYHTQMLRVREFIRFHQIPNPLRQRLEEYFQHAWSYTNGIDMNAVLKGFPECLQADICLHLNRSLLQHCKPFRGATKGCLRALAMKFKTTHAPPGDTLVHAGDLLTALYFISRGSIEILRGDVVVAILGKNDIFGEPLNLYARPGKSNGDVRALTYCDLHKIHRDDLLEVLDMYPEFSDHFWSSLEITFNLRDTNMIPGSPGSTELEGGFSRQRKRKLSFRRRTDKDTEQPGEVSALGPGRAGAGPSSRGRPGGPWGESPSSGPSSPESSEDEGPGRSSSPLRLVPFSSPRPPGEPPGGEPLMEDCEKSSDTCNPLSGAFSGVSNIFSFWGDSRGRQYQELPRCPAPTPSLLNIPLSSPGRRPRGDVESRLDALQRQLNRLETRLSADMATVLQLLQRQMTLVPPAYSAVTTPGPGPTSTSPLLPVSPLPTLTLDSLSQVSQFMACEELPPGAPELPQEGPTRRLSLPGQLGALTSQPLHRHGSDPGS

This assay concerns the target human ether-à-go-go-related gene (hERG) potassium channel (human, UniProt Q12809). The experiment in a line: primary screen, population patch clamp on CHO cells stably expressing hERG.
Turning to `COc1cc(/C=C\C(=O)Nc2cc(=O)n(C)c(=O)n2C)cc(OC)c1OC`, the “hERG current change (%, negative = inhibition) at 10uM” value was 1.94%.
As for `O=C(NC1CCCCC1)c1ccc2c(c1)OCO2`, the “hERG current change (%, negative = inhibition) at 10uM” value amounted to 15.9%.
As for `O=C(N=Nc1c(O)[nH]c2ccccc12)c1cc(NS(=O)(=O)c2cccs2)cc(NS(=O)(=O)c2cccs2)c1`, the “hERG current change (%, negative = inhibition) at 10uM” value is 6.25%.
With `C=CCn1cnc2c(c1=O)c1nc3ccccc3nc1n2/N=C/c1cc(OC)c(OC)c(OC)c1`, the “hERG current change (%, negative = inhibition) at 10uM” value is recorded as -22.1%.
Turning to `C(=N\n1cnnc1)/c1ccc2c(c1)OCO2`, the “hERG current change (%, negative = inhibition) at 10uM” value was 4.26%.
To `Cc1cccc(C(=O)N[C@@H]2c3ccccc3C[C@@H]2O)n1` belongs -0.112%; to `Cc1cc(=O)oc2c(C)c(OC(C)C(=O)NCCCN3CCCC3=O)ccc12` (stereo not drawn), 14.3%.
On to `COc1ccc(/C=N/S(=O)(=O)CCc2ccccc2)c(OC)c1`, for which the “hERG current change (%, negative = inhibition) at 10uM” value amounted to 3.58%.
For the compound `CCCCCC(=O)O/N=C(\C)c1ccn(S(=O)(=O)c2ccccc2)c1`, the “hERG current change (%, negative = inhibition) at 10uM” value was found to be 19.4%.
`O=c1[nH]c(=S)n(C2CC2)c(O)c1C=Nc1ccc2c(c1)OCO2`: the “hERG current change (%, negative = inhibition) at 10uM” value was -13.6%.
For the compound `COc1cc(NC(=O)CCN2CCN(Cc3ccccc3)CC2)cc(OC)c1`, the “hERG current change (%, negative = inhibition) at 10uM” value was -20.1%.
As for `Cc1ccc(NC(=O)C2CCN(S(=O)(=O)c3ccc4c(c3)OCCCO4)CC2)nc1`, the “hERG current change (%, negative = inhibition) at 10uM” value was -4.85%.
As to `Cc1ccccc1OCC(O)CN(Cc1ccccc1O)C1CCCCC1` (stereo not drawn), the “hERG current change (%, negative = inhibition) at 10uM” value was -28%.
As to `CCCn1c(=O)c2ccccc2n2c(SCC(=O)Nc3cc(C)on3)nnc12`, the “hERG current change (%, negative = inhibition) at 10uM” value is 8.17%.
The figure for `CC(Sc1nnnn1C)C(=O)NC(=O)NC1CCCCC1` (stereo not drawn) is 8.57%; for `C=CCn1c(-c2cccc(Cl)c2)n[nH]c1=S` it is 13.5%.
Regarding `CCC(C)(NC(=O)c1ccccc1)C(=O)O` (stereo not drawn), the “hERG current change (%, negative = inhibition) at 10uM” value is given as 11%.
As to `COc1ccc(CCNC(=O)CN(c2ccccc2OC)S(C)(=O)=O)cc1OC`, the “hERG current change (%, negative = inhibition) at 10uM” value is reported as 5.96%.
As to `Cc1cc(C)nc(SCc2nnc(SCc3ccc([N+](=O)[O-])cc3)n2Cc2ccco2)n1`, the “hERG current change (%, negative = inhibition) at 10uM” value is listed as -80.6%.
As for `Cc1c(OCC(F)(F)F)ccnc1CS(=O)c1nc2ccccc2[nH]1` (stereo not drawn), the “hERG current change (%, negative = inhibition) at 10uM” value stood at 4.98%.
Turning to `N#CCC(=O)N/N=C/c1ccc(SCC(=O)Nc2ccccc2)o1`, the “hERG current change (%, negative = inhibition) at 10uM” value was 13.5%.
For `O=C(O)Cn1c(SC2CCCCC2)nc2ccccc21`, the “hERG current change (%, negative = inhibition) at 10uM” value is recorded as 5.77%.
As for `COc1ccc(-n2nc(C(=O)NCC(=O)NCCCN3CC(C)CC(C)C3)c3ccccc3c2=O)cc1Cl` (stereo not drawn), the “hERG current change (%, negative = inhibition) at 10uM” value is on record as -62.3%.
On to `CCN(CC)C(=O)C(C(=O)c1cccc([N+](=O)[O-])c1)n1cc(Cl)ccc1=O` (stereo not drawn), for which the “hERG current change (%, negative = inhibition) at 10uM” value was found to be 24.8%.
As to `Cc1ccsc1C(=O)Nc1ccccc1N1CCOCC1`, the “hERG current change (%, negative = inhibition) at 10uM” value is given as -32.6%.
To `Cc1cccc(NC(=O)C2CCCN2C(=O)OCc2ccccc2)c1` (stereo not drawn) belongs 1.6%.
As to `Nc1ccccc1C#Cc1ccc([N+](=O)[O-])cc1`, the “hERG current change (%, negative = inhibition) at 10uM” value was 1.66%.
`CCCNC(=O)C(Cc1ccccc1F)NC(=O)c1ccccn1` (stereo not drawn): the “hERG current change (%, negative = inhibition) at 10uM” value stood at 4.67%.
To `O=C(O)CCCCCN1C(=O)/C(=C\c2ccc(-c3ccc(Cl)cc3)o2)SC1=S` belongs 18%.
Regarding `Cc1ccc(CC(=O)NNC(=O)c2ccncc2)cc1C`, the “hERG current change (%, negative = inhibition) at 10uM” value is recorded as 21.1%.
For the compound `COC/C=C/C1=CC2=CC(=O)C(C)(OC(=O)c3cnc4ccccc4n3)C(=O)C2=CN1C1CC1` (stereo not drawn), the “hERG current change (%, negative = inhibition) at 10uM” value came out at 7.86%.
The figure for `S=C(NCCc1ccccc1)Nc1ccc(Cl)cc1Cl` is -0.477%.
In the case of `CCCn1c(=O)c(C(=O)N/N=C/c2ccc(F)cc2)c(O)c2ccccc21`, the “hERG current change (%, negative = inhibition) at 10uM” value amounted to 7.68%.
With `Cc1ccc(-n2ncc3c(N4CCCC4)ncnc32)c(C)c1`, the “hERG current change (%, negative = inhibition) at 10uM” value is on record as -6.38%.
Turning to `COc1ccc(OC)c(C2c3[nH]c4ccccc4c3C[C@H]3C(=O)N(C4CC4)CC(=O)N23)c1` (stereo partly drawn), the “hERG current change (%, negative = inhibition) at 10uM” value was -19.2%.
The figure for `COC(=O)C1=C(c2cccc(C#N)c2)C[C@@H]2CC[C@H]1N2C(=O)N1CCc2cc(OC)c(OC)cc2C1` is -14.1%.
For the compound `O=C(O)c1cc[c]([Hg][Cl])cc1`, the “hERG current change (%, negative = inhibition) at 10uM” value is -18.1%.
Consider `CSc1ccccc1NC(=O)c1cc(-c2cccnc2)nc2ccc(Br)cc12`, for which the “hERG current change (%, negative = inhibition) at 10uM” value is given as 13.6%.
In the case of `COc1cc(C=Nc2ccccc2C(=O)Nc2ccccc2)cc(OC)c1OC`, the “hERG current change (%, negative = inhibition) at 10uM” value is recorded as 3.78%.
`COc1ccc(S(=O)(=O)CC(=O)c2cc(C)c(O)c(C)c2)cc1`: the “hERG current change (%, negative = inhibition) at 10uM” value came to 5.63%.
To `CCCN(CCC)c1nc2ccccc2nc1C(C#N)C(=O)OC(C)COC` (stereo not drawn) belongs -10.2%; to `COC(=O)c1cc(Br)ccc1NC(=O)CSCc1c(C)noc1C`, -5.04%; to `COc1cc(OC)cc(C(=O)N[C@H](C(=O)Nc2cccc(S(=O)(=O)N3CCCC3)c2)C(C)C)c1`, 2.47%.
The figure for `O=[N+]([O-])c1ccc(CSc2ncnc3c2ncn3[C@@H]2O[C@H](CO)[C@@H](O)[C@H]2O)cc1` is -5.61%.
As to `Cc1onc(-c2ccccc2Cl)c1C(=O)NCc1nnnn1-c1ccc(F)cc1`, the “hERG current change (%, negative = inhibition) at 10uM” value is 3.6%.
For the compound `S=C(NCc1ccc(Cl)cc1)NN1CCOCC1`, the “hERG current change (%, negative = inhibition) at 10uM” value was 7.92%.
For the compound `Cc1cc(C)c(NC(=O)c2ccoc2C)c(C)c1`, the “hERG current change (%, negative = inhibition) at 10uM” value was 3.01%.
Turning to `COC(=O)Nc1nnc(-c2ccncc2)s1`, the “hERG current change (%, negative = inhibition) at 10uM” value is given as 9.86%.
As for `CCOC(=O)C1CCN(C(=O)CSc2nnc(-c3ccco3)n2-c2ccccc2)CC1`, the “hERG current change (%, negative = inhibition) at 10uM” value was -27.8%.
To `COC(=O)CCC(=O)COc1ccccc1C#N` belongs -4.14%; to `C=Cn1c(C(=O)O)cc(CC)c1-c1ccccc1`, -0.732%; to `O=C(Oc1ccc2c(c1)OCO2)c1ccc(Br)c(S(=O)(=O)N2CCOCC2)c1`, -9.3%.
`Cc1ccccc1-n1ccnc1SCC(=O)O`: the “hERG current change (%, negative = inhibition) at 10uM” value is given as 20.9%.
Regarding `CCc1cc2c(-c3ccccc3)cc(=O)oc2cc1OC(C)C(C)=O` (stereo not drawn), the “hERG current change (%, negative = inhibition) at 10uM” value is reported as 1.83%.
As to `Cc1ccc(C)c(S(=O)(=O)NC(CCC(N)=O)C(=O)O)c1` (stereo not drawn), the “hERG current change (%, negative = inhibition) at 10uM” value amounted to 0.0397%.
The figure for `O=C1NC(=O)/C(=C/c2ccc(N3CCOCC3)o2)N1` is 18.2%; for `COc1ccc(/C=N/NC(=O)c2ccncc2)cc1OC` it is 15.5%.

The values are drawn from article PMC4336329 (PLoS ONE, 2015).
